# The whole screen tested about 360,000 compounds, of which about 740 (0.21%) were called active. The shares of active, inactive and inconclusive entries below differ from those in the screen. The call rests on the fitted dose curve; in most records, active means well fitted inhibition curve with a large enough effect; inconclusive means small, poorly fitted or top-dose-only effect; inactive means no such curve, though single readings can be large or run the other way. No potency is given beside an inconclusive call; the fits are too rough.
# System: Plasmodium falciparum AMA1 (3D7) - RON2 peptide interaction
# Test: qHTS for Inhibitors of AMA1-RON; Towards Development of Antimalarial Drug Lead: Primary Screen; further: nearly all actives have a fitted effect of over 45% in size;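 on activity change, negative = inhibition: 0% = vehicle wells and -100% = peptide control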
# Settings: AlphaScreen AMA1-biotinylated RON2 peptide binding; activity change, negative = inhibition: at 58.2 µM (top of the series) unless noted
# Outline: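 AMA1 (3D7) with his tag at 25 nM final met compounds first, then biotinylated RON2 peptide at 25 nM; detection used donor plus acceptor beads, 10 µg/mL apiece, read by AlphaScreen after 30 min at room temperature.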
# Potency means the concentration at half of the fitted maximal effect; tags describe the fitted curve by direction and shape.
Structure (SMILES),Potency,"activity change, negative = inhibition"
Cc1c(Br)c(O)c(Br)c2sc(=O)oc12,"inconclusive [inhibitor, partial curve]",–
NC(=O)c1cc(NC(=O)c2ccc(NS(=O)(=O)c3cccs3)cc2)cc(C(N)=O)c1,inactive,–
O=C1c2ccccc2NC(c2ccc(F)cc2)N1Cc1ccco1 (configuration not stated),inactive,–
Cc1ccccc1NNC(=O)C(=O)NNc1ccccc1C,"inconclusive [inhibitor, partial curve]",–
O=C(NCCc1cccc(Cl)c1)c1cccc([N+](=O)[O-])c1,inactive,–
CCN(CC)CCOC(=O)c1ccc(NC(=O)CCCN2C(=O)/C(=C/c3cccs3)SC2=S)cc1,"inconclusive [inhibitor, single point]",–
Cc1ccc([N+](=O)[O-])cc1S(=O)(=O)NCCc1c(C)[nH]c2ccccc12,"inconclusive [inhibitor, partial curve]",–
CCN(CC)c1ccc(NC(=S)NC(=O)c2ccco2)cc1,"inconclusive [inhibitor, single point]",–
Clc1ccc(OCCn2ccnc2)cc1Cl,"inconclusive [inhibitor, partial curve]",–
Cn1c(=O)c2c(nc(N3CCCCCC3)n2Cc2cccc3ccccc23)n(C)c1=O,"inconclusive [inhibitor, partial curve]",–
COc1cccc(/C=N/NC(=O)c2c(C)nc3ccc(Br)cn23)c1O,"inconclusive [inhibitor, partial curve]",–
CCN1/C(=C/C=C/c2oc3ccc(-c4ccccc4)cc3[n+]2CC)Oc2ccc(-c3ccccc3)cc21,"inconclusive [inhibitor, single point]",–
COc1ccc(N2CCN(C(=O)Cc3csc(NC(=O)Nc4ccccc4OC)n3)CC2)cc1,"inconclusive [inhibitor, single point]",–
C=CCn1c(O)c(C(CC)=NCCc2c[nH]c3ccccc23)c(=O)[nH]c1=O,"inconclusive [inhibitor, partial curve]",–
COC(=O)[C@]12CCCCC=C1N(CCc1ccc(OC)c(OC)c1)C(=O)[C@H](CC(=O)NCCCCc1ccccc1)C2,"inconclusive [inhibitor, partial curve]",–
CCOc1ccc2c(ccc(/C=C/c3cc(C)c4cccnc4c3O)[n+]2C)c1,"inconclusive [inhibitor, single point]",–
CC(=O)Nc1cc2c(cc1Br)OCCO2,inactive,–
COCc1c(C(=O)N2CCN(Cc3c(F)cccc3Cl)CC2)oc2ccccc12,"inconclusive [inhibitor, partial curve]",–
COc1ccc(CC2(C)OC(c3ccc(C)c([N+](=O)[O-])c3)=NN2C(C)=O)cc1 (configuration not stated),"inconclusive [inhibitor, full curve, poor fit]",–
CSc1ncc(C(=O)Nc2cc(C)ccc2C)c(C)n1,inactive,–
CCC(=O)Nc1ccc(N2CCN(C(=O)c3ccco3)CC2)c(Cl)c1,"inconclusive [inhibitor, full curve, poor fit]",–
O=C1C(=C(I)I)c2ccccc2-c2ccccc21,"inconclusive [inhibitor, partial curve]",–
CCN(CC)c1ccc(NC(=O)COC(=O)COc2ccccc2[N+](=O)[O-])cc1,"inconclusive [inhibitor, partial curve]",–

Structure (SMILES),Potency,"activity change, negative = inhibition"
Cc1noc(C)c1CNCc1ccccc1,"inconclusive [inhibitor, single point]",–
COc1cc(C=C2CN(C)C(=O)C2=O)ccc1O,"inconclusive [inhibitor, partial curve]",–
Cc1c(CN(C)C)c2c(n1Cc1ccccc1)C(=O)c1ccc(Br)cc1-2,"inconclusive [inhibitor, partial curve]",–
CC(C)(CO)NCc1ccccc1OCC(=O)Nc1ccccc1,inactive,–
COCCN1Cc2cccc(C(=O)NC(C)CCc3ccco3)c2C1=O (configuration not stated),"inconclusive [inhibitor, partial curve]",–
CN(C)C(=O)COC(=O)/C=C/c1ccccc1[N+](=O)[O-],"inconclusive [inhibitor, partial curve, poor fit]",–
CCC(=O)NC(c1ccccc1)c1nc2ccccc2[nH]1 (configuration not stated),inactive,–
CC1(OC(=O)CCc2ccccc2)C(=O)C=C2C=C3CCCN3C=C2C1=O (configuration not stated),"inconclusive [inhibitor, partial curve]",–
CCOc1ccc(NC(=O)c2ccc3c(=O)n4c(nc3c2)CCCCC4)cc1,inactive,–
O=C(c1cnccn1)N1CCc2c([nH]c3ccccc23)C1c1cccc(Cl)c1 (configuration not stated),"inconclusive [inhibitor, partial curve]",–
CC(C)(C(=O)N1CCC1(C)C(=O)NS(=O)(=O)c1ccc(C#N)cc1)c1ccccc1 (configuration not stated),inactive,–
Cc1cccc(C(C)(C)C)c1OCCn1ccnc1,"inconclusive [inhibitor, full curve, poor fit]",–
O=C(C1CCCN(Cc2ccccc2F)C1)N1CCCCC1 (configuration not stated),"inconclusive [inhibitor, partial curve, poor fit]",–
COc1ccc(NCc2ccc([N+](=O)[O-])s2)cc1,"inconclusive [inhibitor, full curve]",–
CCc1cc(=O)oc2c3c(cc(OCC(=O)NCCCCCC(=O)O)c12)OC(C)(C)CC3,inactive,–
C#CCOCCOCCOCCNc1nc(N2CCN(C(=O)C(Cc3cc4ccccc4[nH]3)n3cc(C(N)Cc4ccc(O)cc4)nn3)CC2)nc(N2CCN(C(=O)C(Cc3cc4ccccc4[nH]3)n3cc(C(N)Cc4ccc(O)cc4)nn3)CC2)n1 (configuration not stated),"inconclusive [inhibitor, partial curve]",–
O=C(c1ccco1)N1CCN(C(=O)c2nn3cccnc3c2Cl)CC1,"inconclusive [inhibitor, single point]",–
CC[N+](C)(CC)CCC(c1ccccc1)C1CCCCC1 (configuration not stated),inactive,–
COc1ccc(NC2=C(Cl)C(=O)N(CCc3ccccc3)C2=O)c(OC)c1,"inconclusive [inhibitor, partial curve]",–
N#Cc1ccc(C23CC4(C2)[C@H](CN(Cc2ccc(-c5ccccc5)cc2)[C@@H]4c2ccccc2)C3c2ccccc2)cc1 (some centres not stated),inactive,–
O=C(NCc1nnc(SCC(=O)N2CCCC2)o1)c1c(F)cccc1F,inactive,–
CCOc1ccc(NC2c3ccccc3C(=O)N2Cc2ccc3c(c2)OCO3)cc1 (configuration not stated),"inconclusive [inhibitor, single point]",–
CS(=O)(=O)N1CCc2cc(C(=O)Nc3ccc(O)cc3)ccc21,inactive,–

Structure (SMILES),Potency,"activity change, negative = inhibition"
CN(C)c1ccc(CNCCC(Cc2ccccc2)c2ccco2)cc1 (configuration not stated),active: 15.8 µM,–
COc1ccc(OC)c(NC(=O)C2(C)CCN2Cc2ccccc2Cl)c1 (configuration not stated),"inconclusive [inhibitor, partial curve]",–
CCCCNC(=O)c1cn(CC)c2ccc(S(=O)(=O)N3CCCCCC3)cc2c1=O,inactive,–
O=C(c1ccc(S(=O)(=O)c2ccc(F)cc2)c([N+](=O)[O-])c1)N1CCCCCC1,inactive,–
C[N+]1(CC(O)COCC2COc3ccccc3O2)CCOCC1 (configuration not stated),inactive,–
CCCS(=O)(=O)NC(=O)C1(C)CCCN(C(=O)c2c(-c3ccccc3)noc2C)C1 (configuration not stated),inactive,–
CN1CN(c2ccccc2)C2(CCN(CCCSc3ccccc3NC(=O)/C=C/c3ccccc3)CC2)C1=O,"inconclusive [inhibitor, partial curve]",–
Cc1ccc(OCC(=O)Nc2ccccc2[N+](=O)[O-])c(Br)c1,"inconclusive [inhibitor, full curve, poor fit]",–
O=C(Nc1ccc2oc(-c3ccccc3Cl)nc2c1)c1ncn[nH]1,"inconclusive [inhibitor, single point]",–
COc1cccc(NC(=O)/C=C/c2ccc([N+](=O)[O-])cc2)c1,–,inconclusive: -31.4% [inhibitor]
COc1ccc(C(=O)Nc2ccc(-c3nnn(CC(=O)N4CCN(C(=O)c5ccco5)CC4)n3)cc2)cc1,"inconclusive [inhibitor, single point]",–
COc1cc(CN2CCC(C(=O)NCCC(C)C)CC2)ccc1OCc1ccccc1,"inconclusive [inhibitor, partial curve]",–
COc1ccc(C(c2nnnn2CS(=O)(=O)c2ccc(C)cc2)N2CCN(c3ncccn3)CC2)cc1 (configuration not stated),inactive,–
COC(=O)c1ccc(CSc2nnc(SCc3ccc(C(=O)OC)o3)s2)o1,"inconclusive [inhibitor, single point]",–
O=C1NC(=S)N(c2ccccc2)C(=O)/C1=C/c1ccco1,active: 8.91 µM,–
O=C(COc1ccc(Cl)cc1Br)Nc1ccccc1N1CCCC1,"inconclusive [inhibitor, single point]",–
COc1ccc(Cc2c(-c3ccc(F)cc3)nc3c4ccccc4ccn23)c(C)c1,inactive,–
O=S(=O)(Nc1cccc2ncccc12)c1cccs1,"inconclusive [inhibitor, single point]",–
CCOc1ccc(NC(=O)COC(=O)C2(C)CC2(Cl)Cl)c([N+](=O)[O-])c1 (configuration not stated),"inconclusive [inhibitor, partial curve]",–
CCOC(=O)c1sc2cc([N+](=O)[O-])cc(SCC(=O)OC)c2c1N,"inconclusive [inhibitor, partial curve]",–
Cc1ccccc1NS(=O)(=O)c1ccc(C(=O)N2CCCCCC2)cc1,"inconclusive [inhibitor, full curve, poor fit]",–
